{"source": "PubChem BioAssay AID588591", "about": "(National Center for Advancing Translational Sciences (NCATS), 2011)", "note": "Out of some 390,000 compounds screened, about 4,700 (1.2%) were called active. This list was built around the results that the source calls inconclusive (neither active nor inactive); the mix of calls is not that of the screen. Calls follow the shape of the dose curve; as a rule, active = well fitted inhibition curve with a large enough effect; inconclusive = small, poorly fitted or top-dose-only effect, or another doubt; inactive = no such curve, though single readings can be large or run the other way. A potency beside an inconclusive call is a rough fit, not a confirmed value. % is scaled to controls: 0 for no effect and ±100 for the full control effect; potency is read from the fitted curve at half-maximal effect; tags tell the direction and shape of the fitted curve."}
{"target": "DNA polymerase eta (Homo sapiens) (UniProt Q9Y253)", "sequence (Q9Y253 whole entry, looked up)": "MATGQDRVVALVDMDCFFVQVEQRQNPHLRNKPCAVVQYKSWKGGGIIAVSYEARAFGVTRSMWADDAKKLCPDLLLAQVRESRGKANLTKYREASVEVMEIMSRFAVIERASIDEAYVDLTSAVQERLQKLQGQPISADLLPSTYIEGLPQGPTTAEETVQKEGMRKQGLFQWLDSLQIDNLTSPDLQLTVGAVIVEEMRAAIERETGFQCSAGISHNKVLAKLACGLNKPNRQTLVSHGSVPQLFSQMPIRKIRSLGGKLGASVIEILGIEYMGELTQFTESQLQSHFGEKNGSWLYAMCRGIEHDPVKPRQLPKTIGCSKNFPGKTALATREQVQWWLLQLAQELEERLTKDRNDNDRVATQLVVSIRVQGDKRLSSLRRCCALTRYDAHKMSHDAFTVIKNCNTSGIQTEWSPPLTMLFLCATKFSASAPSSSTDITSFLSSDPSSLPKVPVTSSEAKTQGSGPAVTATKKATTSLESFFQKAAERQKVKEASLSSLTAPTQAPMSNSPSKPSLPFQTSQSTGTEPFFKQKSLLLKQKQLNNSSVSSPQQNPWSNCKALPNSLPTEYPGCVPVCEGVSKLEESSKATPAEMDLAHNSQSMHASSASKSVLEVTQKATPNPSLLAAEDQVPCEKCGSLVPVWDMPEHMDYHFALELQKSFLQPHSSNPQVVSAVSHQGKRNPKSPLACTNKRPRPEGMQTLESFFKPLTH", "assay": "qHTS for Inhibitors of Polymerase Eta", "conditions": "recombinant Pol eta, fluorescent DNA replication assay; series mostly up to 114 µM; activity change, negative = inhibition: at the top concentration", "how_it_was_run": "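Fluorescent replication assay: 50 nM final substrate added after a 15 min room-temperature compound preincubation with 10 nM enzyme. Signal taken at 0 min and again at 10 min.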"}
{"smiles": "CN1CCN(S(=O)(=O)c2ccc(N3CCN(c4ccc(O)cc4)CC3)c([N+](=O)[O-])c2)CC1", "activity change, negative = inhibition": "inactive: -13.5%"}
{"smiles": "CCn1cc(C(=O)N2CCN(c3ccc([N+](=O)[O-])cc3)CC2)c(=O)c2ccc(C)nc21", "activity change, negative = inhibition": "inactive: -10.8%"}
{"smiles": "O=C(COC(=O)c1ccc(Br)o1)NCc1ccco1", "Potency": "active: 10 µM"}
{"smiles": "CCOC(=O)c1cnc2c(C)c(C)ccc2c1Nc1ccc(S(=O)(=O)Nc2ncccn2)cc1", "Potency": "inconclusive: 25.1 µM [inhibitor, partial curve, poor fit]"}
{"smiles": "Cc1cc(C)nc(SCc2ccc(C(=O)O)o2)n1", "activity change, negative = inhibition": "inactive: 4.5%"}
{"smiles": "Cc1ccc(NC(=O)CN2C(=O)NC(C)(c3ccc(Cl)cc3)C2=O)cc1S(=O)(=O)N1CCOCC1", "note": "(centres undefined)", "Potency": "inconclusive: 44.7 µM [inhibitor, partial curve, poor fit]"}
{"smiles": "CCc1nnc(NS(=O)(=O)c2ccc(N/C=C\\C(=O)c3cccc(OC)c3)cc2)s1", "activity change, negative = inhibition": "inactive: -16.7%"}
{"smiles": "CC(=O)Cc1cc(=O)c2c(C)cc(O)c(C3OC(CO)C(O)C(O)C3O)c2o1", "note": "(centres undefined)", "activity change, negative = inhibition": "inactive: -2.83%"}
{"smiles": "Cc1ccc(Nc2nnc(SCC(=O)c3ccc(Br)s3)s2)c(C)c1", "Potency": "inconclusive: 39.8 µM [inhibitor, partial curve, poor fit]"}
{"smiles": "N=C(N)c1ccc(N=Nc2c(O)ccc3c2[nH]c2ccccc23)cc1", "Potency": "active: 39.8 µM"}
{"smiles": "CS(=O)(=O)c1ccc2nc(NC(=O)CCC(=O)c3cccs3)sc2c1", "Potency": "inconclusive: 15.8 µM [inhibitor, partial curve, poor fit]"}
{"smiles": "CC(COc1ccccc1)OC(=O)Nc1ccccc1", "note": "(centres undefined)", "Potency": "inconclusive: 2.82 µM [inhibitor, full curve, poor fit]"}
{"smiles": "CC(=O)c1ccc(S(=O)(=O)N2CCN(C(=O)c3ccc(N)c([N+](=O)[O-])c3)CC2)cc1", "Potency": "inconclusive: 31.6 µM [inhibitor, partial curve, poor fit]"}
{"smiles": "CCN(CC)CCn1c2ccccc2c(=O)c2c(O)ccc(O)c21", "Potency": "inconclusive: 31.6 µM [inhibitor, partial curve, poor fit]"}
{"smiles": "CCN(CC)S(=O)(=O)c1ccc(N2CCOCC2)c(NC(=O)COc2ccc(OC)cc2)c1", "Potency": "inconclusive: 89.1 µM [inhibitor, partial curve, poor fit]"}
{"smiles": "N=C1/C(=C\\c2ccc(-c3cccc(Cl)c3)o2)C(=O)N=C2SC=C(c3ccccc3)N12", "Potency": "active: 79.4 µM"}
{"smiles": "COc1cc2c(oc(=O)c3cc(C)cc(OC)c32)c2c(C3OC(C)C(O)C(C)(O)C3O)ccc(O)c12", "note": "(centres undefined)", "Potency": "active: 3.98 µM"}
{"smiles": "NC(=O)CSc1oc(-c2ccco2)nc1S(=O)(=O)c1ccc(Cl)cc1", "Potency": "inconclusive: 100 µM [inhibitor, single point]"}
{"smiles": "CCOC(=O)c1ccccc1NC(=O)Cn1cnc2c(cnn2-c2ccc(OC)cc2)c1=O", "activity change, negative = inhibition": "inactive: -17.3%"}
{"smiles": "Cc1nonc1C1CCCN1C(=O)c1cc(COc2cccc(C(F)(F)F)c2)on1", "note": "(centres undefined)", "Potency": "inconclusive: 15.8 µM [inhibitor, partial curve, poor fit]"}
{"smiles": "COC(=O)c1ccc(NC(=S)NC2CCCCC2C)cc1", "note": "(centres undefined)", "Potency": "inconclusive: 100 µM [inhibitor, partial curve, poor fit]"}
{"smiles": "Cc1ccc(-n2ccc(=O)c(-c3ccnc(SCc4cccc(Cl)c4)n3)n2)cc1", "Potency": "inconclusive: 28.2 µM [inhibitor, single point]"}
{"smiles": "O=C(Nc1cccc(C(=O)OCc2cc(=O)n3nc(C4CC4)sc3n2)c1)c1cccc(F)c1", "Potency": "inconclusive: 79.4 µM [inhibitor, partial curve]"}
{"smiles": "O=C(/C=C/c1cccc([N+](=O)[O-])c1)Nc1ccc(NC(=O)c2cccs2)cc1", "Potency": "inconclusive: 14.1 µM [inhibitor, partial curve, poor fit]"}
{"smiles": "Cc1ccc(S(=O)(=O)N2[C@@H](c3cccc(Cl)c3)C(C(=O)O)=CC[C@H]2c2ccc(Cl)cc2)cc1", "Potency": "inconclusive: 89.1 µM [inhibitor, single point]"}
{"smiles": "CCC(C(=O)NC1C(=O)N2C(C(=O)O)=C(CSc3nnc(C)s3)CSC12)c1ccccc1", "note": "(centres undefined)", "Potency": "inconclusive: 56.2 µM [inhibitor, partial curve, poor fit]"}
{"smiles": "c1coc(-c2nc3ccccc3nc2-c2ccco2)c1", "Potency": "active: 50.1 µM"}
{"smiles": "Cn1c2ccccc2c(=O)c2ccc(C#Cc3ccccn3)cc21", "Potency": "active: 28.2 µM"}
{"smiles": "Cc1noc(-c2ccc(N3CCCCC3)c([N+](=O)[O-])c2)n1", "activity change, negative = inhibition": "inactive: -17.2%"}
{"smiles": "Cc1cc(NC(=O)c2cccc(Cl)c2)ccc1-c1cc2ccccc2oc1=O", "Potency": "inconclusive: 56.2 µM [inhibitor, partial curve, poor fit]"}
{"smiles": "O=C(CCc1nnc2ccc(NCc3ccco3)nn12)N1CCN(c2ccccc2)CC1", "Potency": "active: 44.7 µM"}
{"smiles": "COc1c(F)c(F)c(C(=O)Nc2ccc3oc(-c4ccncc4)nc3c2)c(F)c1F", "Potency": "inconclusive: 14.1 µM [inhibitor, partial curve, poor fit]"}
{"smiles": "COc1ccc(Nc2cc(C(=O)NCCCN3CCN(c4ccc(OC)cc4)CC3)c3ccccc3n2)cc1", "activity change, negative = inhibition": "inactive: -19%"}
{"smiles": "O=C(/C=C/c1ccccc1Cl)Nc1cccnc1", "Potency": "inconclusive: 100 µM [inhibitor, partial curve, poor fit]"}
{"smiles": "CC(=O)c1cccc(NC(=O)NNC(=O)c2ccc3ccccc3c2)c1", "activity change, negative = inhibition": "inactive: -6.3%"}
{"smiles": "Cc1ccc(-c2nc3cccnc3s2)cc1NC(=O)C1c2ccccc2Oc2ccccc21", "Potency": "inconclusive: 3.98 µM [inhibitor, full curve, poor fit]"}
{"smiles": "O=C(COC(=O)CC12CC3CC(CC(Br)(C3)C1)C2)NC(=O)NCc1ccco1", "Potency": "inconclusive: 20 µM [inhibitor, single point]"}
{"smiles": "O=C(c1ccco1)N1CCN(C(=O)c2ccc(COc3ccc4c(c3)CCC4)o2)CC1", "Potency": "inconclusive: 35.5 µM [inhibitor, single point]"}
{"smiles": "O=C(/C=C/c1ccc(O)c(O)c1)c1ccc(S(=O)(=O)N2CCCCCC2)cc1", "Potency": "active: 7.94 µM"}
{"smiles": "CSc1ccccc1Sc1cc(C(=O)O)c2ccccc2n1", "Potency": "inconclusive: 39.8 µM [inhibitor, partial curve, poor fit]"}
{"smiles": "CCc1ccc(NC(=O)CCn2nc(C)c(S(=O)(=O)N3CCCCC3)c2C)cc1", "Potency": "inconclusive: 79.4 µM [inhibitor, partial curve, poor fit]"}
{"smiles": "N#C/C(=C\\c1cn(Cc2ccc(F)cc2)c2ccccc12)C(=O)NCc1ccco1", "Potency": "inconclusive: 17.8 µM [inhibitor, partial curve, poor fit]"}
{"smiles": "O=C(Cn1c(=O)nc(-c2ccccc2)c2ccccc21)NCc1ccc(Cl)cc1", "activity change, negative = inhibition": "inactive: -5.77%"}
{"smiles": "CC1CCCC(NC(=O)COC(=O)c2ccccc2NC(=O)c2ccco2)C1C", "note": "(centres undefined)", "Potency": "inconclusive: 20 µM [inhibitor, partial curve, poor fit]"}
{"smiles": "CCOc1ccc(C(C)(C)C)cc1S(=O)(=O)N1CC(C)OC(C)C1", "note": "(centres undefined)", "Potency": "inconclusive: 79.4 µM [inhibitor, partial curve, poor fit]"}
{"smiles": "Cc1cc(NC(=O)CSc2ccc3ccccc3c2)no1", "Potency": "inconclusive: 28.2 µM [inhibitor, partial curve, poor fit]"}
{"smiles": "CCOC(=O)c1ccc(-c2ccc3c(c2)CCC3)nc1C", "activity change, negative = inhibition": "inactive: -8.8%"}
{"smiles": "CCOC(=O)c1c(NC(=O)c2cc(-c3ccc(O)cc3)on2)sc(C(C)=O)c1C", "Potency": "inconclusive: 4.47 µM [inhibitor, full curve, poor fit]"}
{"smiles": "C=CCSc1nc2c(c(C3CC=CCC3)c1C#N)CCC2", "note": "(centres undefined)", "Potency": "inconclusive: 79.4 µM [inhibitor, partial curve, poor fit]"}
{"smiles": "Cc1[nH]c2ccccc2c1C(c1ccccc1)c1cccs1", "note": "(centres undefined)", "Potency": "inconclusive: 20 µM [inhibitor, partial curve, poor fit]"}
{"smiles": "O=C(O)CNS(=O)(=O)c1ccc2c3c(cccc13)C(=O)N2", "Potency": "active: 31.6 µM"}
{"smiles": "Cc1ccc(-c2csc(NC(=O)c3ccc(Br)cc3)c2C(=O)O)cc1", "Potency": "active: 50.1 µM"}
{"smiles": "CCOC(=O)c1ccc(NC(=O)c2cccc3c2C(=O)N(CC2CCCO2)C3)cc1", "note": "(centres undefined)", "Potency": "inconclusive: 39.8 µM [inhibitor, partial curve, poor fit]"}
{"smiles": "O=C1/C(=C\\c2c(NCCOCCO)nc3ccccn3c2=O)SC(=S)N1Cc1ccco1", "Potency": "active: 79.4 µM"}
{"smiles": "CC(=O)c1ccc(NC(=O)C(C)OC(=O)/C=C/c2ccco2)cc1", "note": "(centres undefined)", "Potency": "inconclusive: 20 µM [inhibitor, partial curve]"}
{"smiles": "CCOc1ccc(-n2nc(CO)c(C(=O)NCc3cccnc3)n2)cc1", "activity change, negative = inhibition": "inactive: -6.86%"}
{"smiles": "CCN(CC)S(=O)(=O)c1ccc(N(C)Cc2ccc(C(F)(F)F)cc2)nc1", "Potency": "inconclusive: 79.4 µM [inhibitor, partial curve, poor fit]"}
{"smiles": "O=C(COC(=O)/C=C/c1ccco1)NCCN1C(=O)CSC1=O", "Potency": "active: 50.1 µM"}
{"smiles": "COc1nc2ccc(C)cc2cc1-c1noc(-c2cccnc2)n1", "Potency": "inconclusive: 28.2 µM [inhibitor, partial curve, poor fit]"}
{"smiles": "CC(=O)C1=C(O)C2(C)c3c(O)c(C)c(O)c(C(C)=O)c3OC2CC1=O", "note": "(centres undefined)", "activity change, negative = inhibition": "inactive: -5.88%"}
{"smiles": "CCN(CCNC(=O)c1ccc2nc(-c3ccccc3NC(C)=O)c(=O)[nH]c2c1)c1ccccc1", "Potency": "inconclusive: 89.1 µM [inhibitor, partial curve, poor fit]"}
{"smiles": "COc1cc(/C=C2\\SC(=O)N(Cc3ccc(Cl)cc3)C2=O)cc([N+](=O)[O-])c1O", "Potency": "active: 79.4 µM"}
{"smiles": "Cc1cccc(C(=O)Nc2cccc(C(=O)OCc3cc(=O)n4nc(C(C)C)sc4n3)c2)c1", "Potency": "inconclusive: 79.4 µM [inhibitor, single point]"}
{"smiles": "Cc1cccc(Nc2nnc(SC/C(O)=C(\\C#N)c3nc4ccccc4[nH]3)s2)c1", "Potency": "inconclusive: 14.1 µM [inhibitor, partial curve, poor fit]"}
